Measurements reported in PubChem BioAssay AID485281 (National Center for Advancing Translational Sciences (NCATS), 2010).
Hit rate of the full screen: of about 350,000 compounds, about 260 (0.074%) were called active. Inconclusive results, whose numbers are uncertain, are shown with a selection of clear calls. The call rests on the fitted dose curve; in most records, active means well fitted inhibition curve with a large enough effect; inconclusive means small, poorly fitted or top-dose-only effect; inactive means no such curve, though single readings can be large or run the other way. A potency beside an inconclusive call is a rough fit, not a confirmed value.
Further: nearly all actives have a fitted effect of over 20% in size.
On the % scale 0 is the no-effect control and ±100 the full control effect; potency means the concentration at half of the fitted maximal effect; tags describe the fitted curve by direction and shape.

Each molecule was assayed against Ferritin light chain (Equus caballus) (UniProt P02791) (assay: qHTS Assay for Identification of Novel General Anesthetics). Conditions: apoferritin/1-aminoanthracene competitive binding, fluorescence; activity change, negative = displacement: at 77.5 µM (top of the series).
UniProt P02791, sequence (P02791 whole entry, looked up): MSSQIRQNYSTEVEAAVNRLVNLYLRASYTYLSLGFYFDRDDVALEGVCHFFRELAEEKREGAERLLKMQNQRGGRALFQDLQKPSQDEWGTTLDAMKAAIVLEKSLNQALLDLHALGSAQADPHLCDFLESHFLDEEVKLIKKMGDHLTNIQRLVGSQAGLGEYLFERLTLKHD
How it was run: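 10 uM apoferritin + 50% sat. 1-AMA, PBS; cpd 10 min RT; Ex380/Em535 endpoint; normalized to free probe vs complex; 4-param Hill fit; propofol titration as pos. ctrl.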
With `Cc1oc(-c2cccc(Cl)c2)nc1CS(=O)(=O)CC(=O)NC(C)CCc1ccccc1` (centres undefined) the Potency was inconclusive: 6.31 µM [inhibitor, single point]. With `CNC(=O)c1[nH]cnc1C(=O)N[C@@H](C)C(=O)OCc1ccccc1` the “activity change, negative = displacement” value was inactive: -7.34%. In the case of `Cc1cc(C)nc(NC(=O)CCC2CCCC2)c1`, the Potency is reported as inconclusive: 50.1 µM [inhibitor, single point]. For `O=C(CCC1N=C2c3ccccc3N=C(SCc3ccc(F)cc3)N2C1=O)NCCc1ccccc1` (centres undefined), the Potency was inconclusive: 35.5 µM [inhibitor, single point]. With `O=C(COc1ccc(Cl)cc1)Nc1cnn(Cc2c(Cl)cccc2Cl)c1` the Potency was inconclusive: 2.82 µM [inhibitor, full curve, poor fit]. `COc1ccc(CSCC(=O)NN=C2CCN(C)CC2)cc1` was tested, and the Potency was inconclusive: 28.2 µM [inhibitor, partial curve]. In the case of `Oc1ccc2ccccc2c1N=Nc1ccccn1`, the Potency is reported as inconclusive: 14.1 µM [inhibitor, partial curve]. In the case of `COc1ccc(CN2CCc3ccccc3C2)cc1Br`, the Potency is reported as inconclusive: 31.6 µM [inhibitor, partial curve]. `CCOC(=O)N1CCN(C(=O)CN(c2ccccc2F)S(=O)(=O)c2ccc(C)cc2)CC1` was tested, and the “activity change, negative = displacement” value was inactive: -4.87%. `c1ccc2c(N3CCCCC3)ncnc2c1` was tested, and the “activity change, negative = displacement” value was inactive: -13.5%. With `O=C(CCc1nnc(CCCCc2ccccc2)o1)NC(c1cccnc1)C(F)(F)F` (centres undefined) the Potency was inconclusive: 35.5 µM [inhibitor, partial curve]. `O=C(NCc1cccnc1)c1ccc(NC(=O)c2cccc([N+](=O)[O-])c2)cc1` was tested, and the “activity change, negative = displacement” value was inactive: -18.8%. With `O=C(ONc1ccc(N=NC(=O)c2ccccc2O)cc1)c1ccccc1` the “activity change, negative = displacement” value was inactive: -10.3%. In the case of `COc1cccc(/C=N/NC(=O)CNC(=O)C2COc3ccccc3O2)c1O` (centres undefined), the Potency is reported as inconclusive: 15.8 µM [inhibitor, partial curve]. With `Cc1cccc2c1N(Cc1ccccc1OCCC(C)C)C(=O)C2=O` the Potency was inconclusive: 1.12 µM [inhibitor, full curve]. With `Brc1ccc(-c2cnnc(N3CCCC3)n2)cc1` the Potency was inconclusive: 8.91 µM [inhibitor, partial curve, poor fit]. For `COc1ccc(-n2cc(C(=O)NCCc3cc(OC)ccc3OC)c3ccccc3c2=O)cc1`, the Potency was inconclusive: 20 µM [inhibitor, partial curve]. In the case of `Cc1cc(C(=O)COC(=O)c2ccc([N+](=O)[O-])o2)c(C)n1CC1CCCO1` (centres undefined), the Potency is reported as inconclusive: 31.6 µM [inhibitor, partial curve]. For `CSc1nc(Cl)cc(Nc2ccccc2N)n1`, the Potency was inconclusive: 25.1 µM [inhibitor, single point]. In the case of `CC(=O)N(CC(=O)O)c1ccccc1`, the “activity change, negative = displacement” value is reported as inactive: 0.93%. `CC(=O)c1c(C)nc2ccc(C)cc2c1-c1ccccc1` was tested, and the Potency was inconclusive: 22.4 µM [inhibitor, partial curve]. `Fc1ccccc1/C=N/N1CCN(Cc2ccccc2Cl)CC1` was tested, and the “activity change, negative = displacement” value was inactive: -6.34%. In the case of `O=C(NC1CCCCCC1)c1ccco1`, the Potency is reported as inconclusive: 28.2 µM [inhibitor, partial curve]. `CC(Sc1nncs1)C(=O)Nc1ccc(Cl)cn1` (centres undefined) was tested, and the Potency was inconclusive: 44.7 µM [inhibitor, single point]. For `Cc1cc(=O)oc2cc(NC(=O)C3COc4ccccc4O3)ccc12` (centres undefined), the Potency was inconclusive: 8.91 µM [inhibitor, partial curve]. For `Cn1cnc([N+](=O)[O-])c1Nc1ccc(O)cc1`, the Potency was inconclusive: 35.5 µM [inhibitor, single point]. `CN1CCN(c2ccc(C(CC(N)=O)NC(=O)Cc3ccc(Br)cc3)cc2[N+](=O)[O-])CC1` (centres undefined) was tested, and the Potency was inconclusive: 50.1 µM [inhibitor, single point]. In the case of `O=C(COC(=O)c1ccccc1NC(=O)c1ccco1)Nc1ccc2c(c1)OCO2`, the Potency is reported as inconclusive: 15.8 µM [inhibitor, partial curve]. In the case of `O=[N+]([O-])c1nn(-c2ccc3c(c2)OCCO3)n(O)c1=Nc1ccccc1`, the Potency is reported as inconclusive: 22.4 µM [inhibitor, partial curve]. `COC(=O)CNC(=O)c1sc2ncn(CC(=O)Nc3ccc(C)c(Cl)c3)c(=O)c2c1C` was tested, and the Potency was inconclusive: 31.6 µM [inhibitor, partial curve]. For `Cc1cc2nc(-c3cccnc3SCC(=O)NCc3ccco3)[nH]c2cc1C`, the “activity change, negative = displacement” value was inactive: 61.7%. In the case of `O=C1N(Cc2ccccc2Cl)c2ccccc2C1(O)c1c[nH]c2ccccc12` (centres undefined), the Potency is reported as inconclusive: 22.4 µM [inhibitor, partial curve]. With `Cc1cc(SCc2ccc(Br)cc2)nc(=O)[nH]1` the Potency was inconclusive: 14.1 µM [inhibitor, partial curve]. `Cn1c(SCc2ccccc2Cl)nc2ccccc21` was tested, and the Potency was inconclusive: 25.1 µM [inhibitor, partial curve]. With `CCC1CCCCN1C(=O)c1cc2cc(Br)ccc2oc1=O` (centres undefined) the Potency was inconclusive: 35.5 µM [inhibitor, partial curve]. With `Cc1noc(C)c1-c1nc(N2CCOCC2)c2ccccc2n1` the “activity change, negative = displacement” value was inactive: -15%. For `O=C(CCN1C(=O)C2C3CCC(C3)C2C1=O)OCC(=O)c1ccccc1` (centres undefined), the Potency was inconclusive: 25.1 µM [inhibitor, partial curve]. With `CC1CCN(c2ccc(C=O)o2)CC1` the Potency was inconclusive: 39.8 µM [inhibitor, partial curve]. For `O=C(Nc1ccc(Br)cc1F)c1cc(S(=O)(=O)NC2CCCCC2)ccc1F`, the Potency was inconclusive: 14.1 µM [inhibitor, partial curve]. For `O=S(=O)(Nc1ccc2c(c1)OCO2)c1ccccc1`, the Potency was inconclusive: 22.4 µM [inhibitor, partial curve]. With `Cc1ccc(NC(=S)NCc2ccc3c(c2)OCO3)cc1C` the Potency was inconclusive: 50.1 µM [inhibitor, single point]. With `O=C(CNC(=O)c1ccc(Br)cc1)N/N=C/c1ccc[nH]1` the Potency was inconclusive: 25.1 µM [inhibitor, partial curve]. For `O=C(CSC1=NCCS1)c1ccc(Cl)cc1`, the Potency was inconclusive: 31.6 µM [inhibitor, single point]. `Cc1c(C(=O)c2ccccc2)oc2ccc3ccccc3c12` was tested, and the “activity change, negative = displacement” value was inactive: -12.5%. `O=C(Cn1nnc(-c2ccccc2)n1)c1ccccc1` was tested, and the Potency was inconclusive: 44.7 µM [inhibitor, partial curve, poor fit]. For `Cc1ccc(-c2ccc(SCC(=O)c3ccccc3)nn2)cc1`, the Potency was inconclusive: 12.6 µM [inhibitor, partial curve]. For `O=C1N(Cc2cccc(Cl)c2)C[C@@H]2C[C@@H](c3cccc4ncccc34)N3CCC[C@@]123`, the Potency was inconclusive: 20 µM [inhibitor, partial curve]. For `COc1cc(-c2nc(Cc3c(F)cccc3Cl)no2)cc(OC)c1OC`, the Potency was inconclusive: 10 µM [inhibitor, partial curve]. For `Cc1ccc(Cl)cc1-n1ncc2c(N3CCN(Cc4ccccc4)CC3)ncnc21`, the “activity change, negative = displacement” value was inactive: -1.79%. In the case of `Cc1cc2ncn(C(=O)c3c(-c4ccccc4)noc3C)c2cc1C`, the Potency is reported as inconclusive: 50.1 µM [inhibitor, single point]. For `O=C(O)c1ccccc1C(=O)Nc1ccc(Oc2ccc3ccccc3c2)cc1`, the Potency was inconclusive: 10 µM [inhibitor, partial curve]. With `Cc1csc(NC(=O)CSc2ccc([N+](=O)[O-])cn2)n1` the “activity change, negative = displacement” value was inactive: -18.3%. In the case of `Nc1nnc(SCc2cccc(C(F)(F)F)c2)s1`, the Potency is reported as inconclusive: 11.2 µM [inhibitor, partial curve]. `COC(=O)CSC1=C(C#N)C(c2ccc(C)cc2)C2=C(CCCC2=O)N1` (centres undefined) was tested, and the Potency was inconclusive: 31.6 µM [inhibitor, partial curve]. For `COc1ccc(N(Cc2cc3cccc(C)c3[nH]c2=O)C(=O)c2cccc(Cl)c2)cc1`, the “activity change, negative = displacement” value was inactive: -0.893%. With `CC(=O)c1cccc(NC(=O)C2CCN(S(=O)(=O)c3cccs3)CC2)c1` the Potency was inconclusive: 31.6 µM [inhibitor, single point]. For `Nc1[nH]nc2c1NN(c1ccc(Cl)cc1Cl)N2`, the Potency was inconclusive: 31.6 µM [inhibitor, single point]. With `Cc1ccc(NC(=O)C2OCCc3ccccc32)cc1Cl` (centres undefined) the Potency was inconclusive: 12.6 µM [inhibitor, partial curve]. `N/C(CS(=O)(=O)c1ccccn1)=N\OC(=O)c1ccc(Cl)cc1` was tested, and the “activity change, negative = displacement” value was inactive: -5.13%. For `O=C(C1CCN(S(=O)(=O)Cc2ccccc2)CC1)N1CCN(c2cccc(C(F)(F)F)c2)CC1`, the “activity change, negative = displacement” value was inactive: -5.7%. In the case of `CCN(Cc1ccccc1)S(=O)(=O)c1ccc(C(=O)Nc2nnc(-c3ccccc3OC)o2)cc1`, the “activity change, negative = displacement” value is reported as inactive: -2.89%. `Cc1ccc(NC(=O)c2cc(S(=O)(=O)NCCc3ccc(Cl)cc3)ccc2F)cc1` was tested, and the Potency was inconclusive: 11.2 µM [inhibitor, full curve, poor fit]. `OCC1(Cc2cccc(Cl)c2)CCCN(Cc2cn[nH]c2C2CCCCC2)C1` (centres undefined) was tested, and the Potency was inconclusive: 39.8 µM [inhibitor, single point]. `CC(C)(C)CNc1cc(N2CCOCC2)ccc1[N+](=O)[O-]` was tested, and the Potency was inconclusive: 28.2 µM [inhibitor, partial curve]. With `CSc1ccc(C(=O)C2CCCN(C(=O)c3cccc(N4CCOCC4)c3)C2)cc1` (centres undefined) the Potency was inconclusive: 25.1 µM [inhibitor, partial curve]. With `COc1ccc(NC(C)C(=O)Nc2ccc(C(C)(C)C)cc2)cc1Cl` (centres undefined) the Potency was inconclusive: 25.1 µM [inhibitor, partial curve]. In the case of `CC(=O)Nc1ccc(-c2ccccc2)s1`, the “activity change, negative = displacement” value is reported as inactive: -7.08%. `COc1ccc(CNC(=O)C(=O)NC2CCC(C)CC2)cc1` (centres undefined) was tested, and the Potency was inconclusive: 50.1 µM [inhibitor, single point]. `Cc1nn(CC(=O)OCCOc2ccc(Br)cc2)c(C)c1[N+](=O)[O-]` was tested, and the Potency was inconclusive: 25.1 µM [inhibitor, partial curve].
